# Test results: PubChem BioAssay AID1476 (National Center for Advancing Translational Sciences (NCATS), 2009)
# In all, about 200,000 compounds went through this assay and about 4,500 (2.2%) were called active. The inconclusive results got no clear call from the source; some entries with a clear call stand among them for comparison. The call rests on the fitted dose curve; in most records, active means well fitted inhibition curve with a large enough effect; inconclusive means small, poorly fitted or top-dose-only effect, or effect the other way; inactive means flat fitted curve, though single readings scatter. Where the call is inconclusive, the potency comes from a doubtful curve fit.
# Biological target: Cruzipain (Trypanosoma cruzi) (UniProt P25779)
# Test: qHTS Assay for Promiscuous and Specific Inhibitors of Cruzain (without detergent); further: nearly all actives have a fitted effect of over 40% in size;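 on max response, negative = inhibition: plate controls were enzyme without inhibitor for no effect and buffer without enzyme for full effect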
# Conditions: purified cruzain, Z-FR-AMC fluorescence, no detergent
# In short: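 Purified cruzain at 1.5 nM, pre-incubated 15 min with compound at room temperature in 100 mM sodium acetate pH 5.5, 5 mM DTT, 0.00005% Triton X-100. Reaction started with 2 uM Z-FR-AMC; AMC fluorescence increase over 60 s gives rate.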
# Potency means the concentration at half of the fitted maximal effect; tags describe the fitted curve by direction and shape.
# Chain of UniProt P25779 (P25779 whole entry, looked up): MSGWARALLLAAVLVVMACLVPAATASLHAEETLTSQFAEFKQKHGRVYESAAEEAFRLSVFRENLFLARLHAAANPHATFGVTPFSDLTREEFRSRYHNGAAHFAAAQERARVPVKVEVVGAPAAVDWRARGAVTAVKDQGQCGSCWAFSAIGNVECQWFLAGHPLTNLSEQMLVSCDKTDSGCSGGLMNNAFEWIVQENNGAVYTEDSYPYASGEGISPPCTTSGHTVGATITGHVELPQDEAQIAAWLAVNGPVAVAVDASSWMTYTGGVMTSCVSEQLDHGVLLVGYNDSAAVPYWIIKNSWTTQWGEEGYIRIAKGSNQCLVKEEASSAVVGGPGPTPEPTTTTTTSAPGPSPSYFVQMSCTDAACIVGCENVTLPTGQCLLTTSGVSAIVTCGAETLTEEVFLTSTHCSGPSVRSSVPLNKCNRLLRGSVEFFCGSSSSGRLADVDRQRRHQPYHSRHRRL
SMILES,Potency,"max response, negative = inhibition"
O=C(CSc1nnc(-c2ccco2)o1)c1ccccc1,active: 15.8 µM,
CCN1C/C(=C/c2cccc([N+](=O)[O-])c2)C(=O)/C(=C/c2cccc([N+](=O)[O-])c2)C1,"inconclusive: 39.8 µM [inhibitor, single point]",
COc1ccc(Cl)cc1NC(=O)c1c(NCc2cccs2)sc2c1CCC(C)C2 (stereo not drawn),"inconclusive: 20 µM [inhibitor, partial curve]",
Cc1ccc(-c2nc3ccccc3s2)cc1S(=O)(=O)N1CCOCC1,,inconclusive: 60.3% [activator]
CC(C)(C)OC(=O)N1CCC(c2c(C(=O)NCc3ccccn3)cnn2-c2ccccc2Cl)CC1,"inconclusive: 39.8 µM [activator, single point]",
CCOc1ccc(-c2nnc3sc(COc4ccc(Cl)cc4)nn23)cc1,"inconclusive: 31.6 µM [inhibitor, single point]",
Cc1ccc(Nc2c(-c3cccc(Cl)c3)nc3cccc(C)n23)cc1,"inconclusive: 39.8 µM [inhibitor, single point]",
CCOc1ccccc1C(=O)NC(C(=O)Nc1ccccc1N1CCOCC1)C(C)C (stereo not drawn),"inconclusive: 31.6 µM [activator, single point]",
Cc1occc1C(=O)Nc1ccc2ccccc2c1,"inconclusive: 15.8 µM [inhibitor, partial curve]",
CC(=O)c1ccc(OC(=O)c2c(-c3ccccc3Cl)noc2C)cc1,,inactive: 1.23%
CCOC(=O)c1c(NC(=O)CSc2nnc(CN3CCOCC3)n2C)sc2c1CCCC2,"inconclusive: 31.6 µM [activator, single point]",
S=C(c1cn(Cc2ccc(Br)cc2)c2ccccc12)N1CCOCC1,"inconclusive: 39.8 µM [inhibitor, single point]",
CCOc1ccc(-c2cn(-c3cccc(SC)c3)c(=O)[nH]2)cc1,"inconclusive: 39.8 µM [inhibitor, single point]",
CCc1ccccc1NC(=O)CSc1nccn1C,,inactive: -4.4%
COCCn1c(C(=O)N2CCCC2)cc2c1C[C@H]1CN(C(=O)c3ccccc3)[C@@](Cc3ccc(OC)cc3)(C(=O)OC)[C@@H]21,"inconclusive: 31.6 µM [activator, single point]",
Cc1cccc(N2CCN(C(=O)c3ccc4c(c3)CCN4S(=O)(=O)c3ccccc3)CC2)c1C,"inconclusive: 31.6 µM [inhibitor, single point]",
Cc1ccc(-c2nc(NC(=O)CSc3nnnn3-c3ccccc3)ns2)cc1,"inconclusive: 39.8 µM [inhibitor, single point]",
COc1cccc(OCc2cc(C3Nc4ccccc4C(=O)N3Cc3ccco3)ccc2OC)c1 (stereo not drawn),active: 15.8 µM,
COc1cccc(N2CCN(CC(=O)Nc3nnc(-c4ccccc4)s3)CC2)c1,active: 25.1 µM,
Cc1ccc(S(=O)(=O)c2cn(CC(=O)Nc3ccccc3)c3cc4c(cc3c2=O)OCO4)cc1,active: 1 µM,
CCN=C1NN=C(c2ccc(C)cc2)CS1,"inconclusive: 31.6 µM [inhibitor, single point]",

SMILES,Potency,"max response, negative = inhibition"
CCn1c2c(c(=O)n3ncc(C(=O)Nc4ccc(F)c(Cl)c4)c13)CN(Cc1ccc(OC)cc1)CC2,"inconclusive: 39.8 µM [activator, single point]",
CC(=O)c1ccc(NC(=O)COc2ccccc2-c2nc(C)no2)cc1,"inconclusive: 20 µM [inhibitor, single point]",
CC(C)C[C@@H](COCc1cccc(Cl)c1)N1CCN(C(=O)c2cccc(C(F)(F)F)c2)CCC1=O,"inconclusive: 39.8 µM [activator, single point]",
Cc1noc(C)c1S(=O)(=O)Nc1ccc(C(=O)N2CCN(c3cccc(Cl)c3)CC2)cc1,"inconclusive: 39.8 µM [activator, single point]",
O=c1c([N+](=O)[O-])c(N2CCCCC2)c2ccccc2n1-c1ccccc1,"inconclusive: 31.6 µM [inhibitor, single point]",
CCOC(=O)c1cc(CC)sc1NC(=O)CSc1nc2ccccc2c(=O)n1Cc1ccco1,"inconclusive: 39.8 µM [inhibitor, single point]",
COc1ccc(NC(=O)N2CCCC3(CCN(S(C)(=O)=O)CC3)C2)cc1,,inactive: 1.33%
Cc1ccccc1OCC(=O)Nc1nnc(S(=O)(=O)N(C)c2ccccc2)s1,,inactive: -0.134%
O=C(COn1nnc2ccc(C(F)(F)F)cc21)Nc1nnc(-c2ccccc2)o1,"inconclusive: 31.6 µM [activator, single point]",
CCOc1ccc(-n2ccnc2SCC(=O)Nc2ccc(OC)cc2OC)cc1,,inactive: 0.0846%
O=C(CSc1nccn1C1CCCC1)Nc1ccccc1,"inconclusive: 3.16 µM [inhibitor, single point]",
Cn1c(=O)c2ncn(CC(=O)Nc3cccc(-c4nc5ccccc5s4)c3)c2n(C)c1=O,"inconclusive: 39.8 µM [activator, single point]",
COC(=O)c1c(-c2cccs2)csc1NC(=O)COc1ccc(C(C)C)cc1,"inconclusive: 25.1 µM [inhibitor, partial curve, poor fit]",
O=C(OCCN1C(=O)c2cccc3c(N4CCOCC4)ccc(c23)C1=O)c1cc(Cl)cc(Cl)c1,"inconclusive: 25.1 µM [inhibitor, partial curve]",
Cc1ccc(CN2C(=O)N(c3ccc(C)c(Cl)c3)S(=O)(=O)c3ccccc32)cc1,"inconclusive: 31.6 µM [inhibitor, single point]",
CCOC(=O)CN(C(=O)CSc1nnc(Cc2ccccc2)n1-c1ccc(C)cc1)c1ccccc1,"inconclusive: 39.8 µM [activator, single point]",
COc1cccc(NC(=O)CN2C(=O)C3(SCC(=O)N3c3cc(C)cc(C)c3)c3ccccc32)c1 (stereo not drawn),"inconclusive: 25.1 µM [inhibitor, single point]",
COCC(=O)Nc1sc2c(c1C(=O)OC)CCCC2,"inconclusive: 39.8 µM [activator, single point]",
O=C(Nc1ccc(S(=O)(=O)N2CCCC2)cc1)N1c2ccccc2Sc2ccccc21,"inconclusive: 39.8 µM [inhibitor, single point]",
Cc1ccc(CNC(=O)CCCn2c(=O)c3ccccc3n(CC(=O)NCc3ccco3)c2=O)cc1,"inconclusive: 31.6 µM [inhibitor, single point]",
COc1ccc(C2=NN(c3nc(-c4ccccc4)c(CC(=O)O)s3)C(c3ccco3)C2)cc1 (stereo not drawn),active: 12.6 µM,

SMILES,Potency,"max response, negative = inhibition"
Cc1ccc(NC(c2cccc(Cl)c2)c2nnc(-c3ccccc3)o2)cc1F (stereo not drawn),"inconclusive: 3.16 µM [inhibitor, partial curve, poor fit]",
Cc1c(/C=N/NC(=O)c2cc(=O)[nH]c(=O)[nH]2)c2ccccn2c1C(=O)c1ccccc1,"inconclusive: 25.1 µM [activator, partial curve]",
COC(=O)c1nn(-c2ccc(OC)cc2)c(=O)cc1Oc1ccccc1,,inactive: -0.316%
Cc1nn(C2CCOC(C)(C)C2)c2c1C(c1ccc(OC(C)C)cc1)SCC(=O)N2 (stereo not drawn),"inconclusive: 39.8 µM [activator, single point]",
COc1ccc(C(=O)c2coc3ccc(O)c(CN4CCCC4)c23)cc1,,inactive: -7.28%
Cc1nc2ccc(F)cc2cc1C(=O)Nc1cccc(Cl)c1C,"inconclusive: 31.6 µM [inhibitor, single point]",
CCC1Oc2ccc(C)cc2N(CC(=O)N(Cc2cccnc2)Cc2ccc(C)o2)C1=O (stereo not drawn),"inconclusive: 39.8 µM [activator, single point]",
CCOC(=O)c1cc(-c2ccc(F)cc2)n(CCC(=O)NCc2ccc(C)cc2)c1C,"inconclusive: 39.8 µM [activator, single point]",
CCCOc1ccc(NC(=O)C2CC(=O)N3CCCN=C3S2)cc1 (stereo not drawn),"inconclusive: 25.1 µM [inhibitor, single point]",
CC(=O)N[C@@H](CSC(=O)[C@]1([C@@H](O)C(C)C)NC(=O)[C@H](C)[C@@H]1O)C(=O)O,,inactive: -7.37%
Cc1ccc(-c2nnn(CC(=O)N(c3ccccc3F)C(CC(C)C)C(=O)NCC3CCCO3)n2)cc1 (stereo not drawn),"inconclusive: 25.1 µM [activator, partial curve]",
CCC(=O)N1CCc2cc(S(=O)(=O)NCCC(=O)Nc3cccc(SC)c3)ccc21,,inactive: -1.66%
CCN(C(=O)Cc1cccs1)c1nnc(-c2cc(OC)c(OC)c(OC)c2)s1,"inconclusive: 39.8 µM [activator, single point]",
COC(=O)c1ccc(C(NC(=O)OCc2ccccc2)/C(C)=C/[C@@H](C)C(=O)NCCO)cc1 (stereo partly drawn),,inactive: -4.89%
COc1cccc(NS(=O)(=O)c2ccc3[nH]cc(C(=O)NCCc4ccc(C)cc4)c(=O)c3c2)c1,active: 12.6 µM,
CC(C)NC(=O)CSc1nnc(COc2ccccc2Cl)o1,,inactive: -5.33%
O=C(Nc1cccc(Cl)c1)c1c(O)c2c(n(Cc3ccccc3)c1=O)CCCC2,active: 15.8 µM,
COc1cc2nc(NC(=O)c3ccc(S(=O)(=O)N4CCCC4)cc3)sc2cc1OC,,inactive: -2.36%
CCC(C(=O)Nc1cc(OC)ccc1OC)n1nc(-c2ccccc2)c2c(c1=O)CCCC2 (stereo not drawn),,inactive: -0.595%
O=c1c(Cc2ccccc2)c(O)nc2n1CCCS2,,inactive: 0.541%
Cn1c2ccccc2c2c(C(=O)N3CCN(c4cccc(C(F)(F)F)c4)CC3)cn(C3CCCCC3)c(=O)c21,"inconclusive: 15.8 µM [inhibitor, partial curve]",
